According to PubChem BioAssay AID1963576 (National Center for Advancing Translational Sciences (NCATS), 2024):
About 60 (0.1%) of roughly 46,000 compounds were called active. Not shown: some 3% with an inconclusive outcome. Calls come from the whole dose curve; as a rule, active = well fitted inhibition curve with a large enough effect; inconclusive = small, poorly fitted or top-dose-only effect; inactive = no such curve, though single readings can be large or run the other way. The list shows a part of the results.

Test: Primary qHTS assay for Inhibitors of ovarian cancer metastasis using an organotypic tumor microenvironment (TME) model.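 For activity change, negative = inhibition: plate controls were DMSO wells for no effect and tomatine positive control wells for full effect.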 Note: nearly all actives have a fitted effect of over 65% in size.
Details: SKOV3ip1-GFP adhesion/invasion on 3D omental model, fluorescence; series mostly up to 45.8 µM; activity change, negative = inhibition: at the top concentration
How it was run: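 qHTS, 4-pt dose (0.36-46 umol/L); SKOV3ip1-GFP, 1,200 cells/well, no FBS; primary omental fibroblast/mesothelial co-culture 48 h pre-grown; 2 h RT + 16 h 37 C; PBS wash, 4% PFA; GFP count 488/509 nm.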

Activity change, negative = inhibition, inactive:
Cc1ccc(C)c(N2CCN(C(=O)CN3CCSc4ccc(S(=O)(=O)N(C)C)cc43)CC2)c1 1.31%
COC(=O)c1ccc(Cl)cc1NC(=O)N1CCCn2nc(C)cc21 -5.76%
COc1nc(-c2ccc(C)cc2)ccc1-c1noc(-c2ccccc2Br)n1 -7.48%
COc1ccc(-c2oc3ncn4nc(-c5ccccc5Br)nc4c3c2-c2ccc(OC)cc2)cc1 1.21%
COc1cccc(NC(=O)/C(C#N)=C\c2cn(Cc3ccc(C)cc3)c3ccccc23)c1 -7.79%
Cc1oc2ncn(CC(C)C)c(=O)c2c1C(=O)N1CCN(c2ccc(F)cc2)CC1 -1.51%
O=C(CN1CCCN(Cc2ccc(Cl)cc2)S1(=O)=O)Nc1ccccc1F 4.55%
COc1cccc(NC(=O)c2oc3ccccc3c2NC(=O)c2ccc(C(F)(F)F)cc2)c1 4.12%
COc1cccc2c1Oc1ncccc1N(C(=O)CCC(=O)NCc1ccc(N(C)C)cc1)C2 -3.69%
Cc1ccc2[nH]c3c(=O)n(CC(=O)N(C)c4cc(Cl)ccc4C)ncc3c2c1 -1.59%
O=C1NC(=O)C(=Cc2cccc(C(F)(F)F)c2)S1 -9.2%
COc1ccccc1NC(=O)c1ccc2c(Cl)c3c(nc2c1)CCCC3 6.46%
COc1ccc(-n2c(=O)c3c4c(sc3n(Cc3ccccc3)c2=O)CN(C(C)=O)CC4)cc1OC -0.75%
CC(=O)OCc1cnc(C)c2oc(=O)c(C(=O)Nc3cccc(F)c3)cc12 5.39%
O=C(c1cc(=O)c2cc(Cl)ccc2o1)N(Cc1ccccc1)C1CCS(=O)(=O)C1 (stereo not given) -6.82%
COc1cc2[nH]c(=O)n(Cc3ccc(C(=O)NCc4ccccc4)cc3)c(=O)c2cc1OC -14.5%
CCCNC(=O)C1CCC(Cn2c(=O)c3sccc3n(Cc3ccccc3C)c2=O)CC1 (stereo not given) 0.731%
COc1ccc(Cl)cc1-n1nnc(-c2nc(-c3ccc4c(c3)OCO4)no2)c1C 10.7%
Nc1ncnc2c1c(-c1cccc(OCc3ccccc3)c1)cn2C1CC(CN2CCC2)C1 (stereo not given) 3.04%
COc1ccc(NC(=O)CSc2nc3nc(C)c(Cc4ccc(C)cc4)c(C)n3n2)cc1OC -2.69%
Cc1ccc(-n2ncc3c(NCCCc4ccccc4)ncnc32)cc1 1.3%
Cc1nc(N2CCCC2)c2c(C(=O)Nc3cccc(Cl)c3C)c(C)oc2n1 -28.7%
CCc1ccc(NC(=O)c2cc(S(=O)(=O)N3CCCCCC3)ccc2F)cc1 -9.64%
Cc1ccc(NC(=O)Nc2nnc(SCC(=O)Nc3ccc(F)cc3F)s2)cc1 -5.14%
COc1ccccc1NC(=O)C(=O)c1cc(C)n(-c2ccccc2F)c1C -9.89%
O=C(NCCCc1nc2ccccc2n1Cc1cccc(Cl)c1)c1ccco1 22.4%
Cc1ccc(-n2ncc3c(NCCCN4CCOCC4)ncnc32)cc1Cl 0.113%
Cc1cccc(Cn2cc3c(=O)n(CC(=O)Nc4c(C)cccc4C)nc-3c3cc(F)ccc32)c1 -0.154%
CCC1CCCCN1S(=O)(=O)c1ccc(NC(=O)c2cc(=O)c3c(C)cc(C)cc3o2)cc1 (stereo not given) 1.8%
COc1cccc(N2CCN(c3c4c(nc5nncn35)CCC4)CC2)c1 -4.5%
COCCCNC(=O)NC(CCC(C)C)c1c(-n2cccc2)sc2c1CCN(C)C2 (stereo not given) -2.2%
Cc1c(Cl)cccc1NC(=O)CCCn1nc(C)c2sc3ccccc3c2c1=O -10.7%
Cc1nnc(C)n1-c1ccc(C(=O)Nc2cccc(Br)c2)cc1 -23.2%
O=C(NCCN1CCN(c2ccccc2)CC1)Nc1cccc(Br)c1 -31.4%
CC1(C)CC(=O)c2cc(-c3nc(-c4ccccc4)cs3)c(=O)[nH]c2C1 -3.49%
CCCCCCCCc1ccc(CCC(N)(CO)CO)cc1 -22.4%
CC(C)Sc1nc2sc3c(c2c(=O)n1Cc1ccccc1)CCCC3 -9.2%
CCOc1ccc(CCNC(=O)CCc2c(C)nc3c(c(C)nn3-c3ccc(C)c(C)c3)c2C)cc1 -4.35%
CC(=O)O[C@H]1C[C@@H]2CC[C@H]3[C@H]4C[C@H]([N+]5(C)CCCCC5)[C@@H](OC(C)=O)[C@@]4(C)CC[C@@H]3[C@@]2(C)C[C@H]1N1CCCCC1 -6.43%
CCOc1ccccc1CNC(=O)Cc1ccc(NC(=O)N2CCCCc3ccccc32)cc1 8.28%
COc1ccc(Nc2nc(-c3cccc(Cl)c3)c3c(n2)-c2ccccc2OC3)cc1 2.39%
CCOC(=O)c1cnc2c(C)c(Cl)ccc2c1NCCc1ccc(OC)c(OC)c1 -9.44%
CCCCNS(=O)(=O)c1ccc2nc(-c3cccnc3)cc(C(=O)NCCCOC(C)C)c2c1 -6.78%
Cc1cccc2c1-c1sc(C(=O)N3CCN(c4ccccc4)CC3)cc1CO2 1.77%
CCOC(=O)C=C[C@H](C[C@@H]1CCNC1=O)NC(=O)[C@@H](CC(=O)[C@@H](NC(=O)c1cc(C)on1)C(C)C)Cc1ccc(F)cc1 -6.99%
CCOC(=O)c1ccc(NC(=O)C2CC(=O)NC(=Nc3ccc(C)c(C)c3)S2)cc1 (stereo not given) 0.239%
COc1ccccc1CNC(=O)Cn1c(=O)oc2cc(S(=O)(=O)N3CCCC3)ccc21 -5.5%
COc1ccccc1CNC(=O)c1cccc(N2CCCS2(=O)=O)c1 -6.9%
CCc1nc2nc(C)cc(Nc3cc(Cl)ccc3C)n2n1 8.53%
COc1ccc(Br)cc1C(=O)Nc1cccc2ccc(C)nc12 -0.102%
COc1cc(-c2nc(S(=O)(=O)c3ccc(Br)cc3)c(N3CCOCC3)o2)cc(OC)c1OC 3.05%
COc1ccc(-c2noc(N(c3ccc(F)c(Cl)c3)c3nc(-c4ccc(OC)c(OC)c4)no3)n2)cc1OC -8.83%
CC(=O)Nc1ccc(NC(=O)C2CCCN(S(=O)(=O)c3ccc4c(c3)CCCC(=O)N4)C2)cc1 (stereo not given) 9.17%
CCOC(=O)c1cnn(-c2ccc(C(=O)Nc3ccc(OC(F)(F)F)cc3)cc2)c1N 8%
Cc1nn(CC(=O)NCc2ccc(F)cc2)c2ccccc12 12.9%
CCCN(Cc1cccs1)C(=O)Nc1cc(Cl)ccc1C 16.7%
Cc1ccc2[nH]c3c(=O)n(CC(=O)NCc4ccco4)ncc3c2c1 -6.05%
COc1ccc(Cl)cc1NC(=O)Cn1ncc2c3ccccc3n(C)c2c1=O 0.659%
CCOC(=O)c1cccc(NC(=O)CCCn2nc(C)c3c(C)n(-c4ccccc4)nc3c2=O)c1 0.757%
CC(=O)Nc1ccc(NC(=O)C2CCN(c3c(NC(C)=O)c(C)nn3-c3ccccc3)CC2)cc1 -5.1%
Cc1ccc(OCCSc2nnc(-c3cccs3)o2)cc1Cl 2.08%
O=C(NCc1ccc(Cl)cc1)c1ccc2c(Cl)c3c(nc2c1)CCCC3 -9.85%
COc1ccc2c(c1)c(=O)c(C(=O)c1ccc(C)c(C)c1)cn2CC(=O)Nc1ccc2c(c1)OCCO2 1.54%
CCOc1ccccc1CNC(=O)CCn1c(=O)c2cccn2c2ccc(F)cc21 0.607%
COc1ccc(-c2nc3cc(C(C)C)ccc3o2)cc1NC(=O)c1ccccc1[N+](=O)[O-] -10.4%
Cn1c(SCC(=O)Nc2ccccc2)nnc1-c1ccccc1 5.05%
Cc1nnc(N2C(=O)c3oc4ccccc4c(=O)c3C2c2ccc(C(C)(C)C)cc2)s1 (stereo not given) -1.21%
COc1ccc(C(=O)CSc2nc(C)cc(C)c2C(=O)Nc2ccccc2C)cc1 -6.66%
COc1ccc(C)cc1NC(=O)CN1c2ccccc2S(=O)(=O)c2ccccc21 -3.62%
COC(=O)c1ccc(NC(=O)CC2C(=O)N(c3cccc(OC)c3)C(=O)N2Cc2ccco2)cc1 (stereo not given) 5.39%
COc1ccc(NC(=O)c2cccc(N3CCCS3(=O)=O)c2)cc1OC -5.11%
COc1ccccc1N1CCN(C(=O)Cn2c(=O)n3nc(-c4ccc(C)cc4)nc3c3ccccc32)CC1 8.72%

outcome, inactive:
O=c1c2cccnc2n(Cc2ccccc2F)c(=O)n1Cc1ccccc1Cl
COc1cc(OC)c(NC(=O)CCCn2nc(C)c3sc4ccccc4c3c2=O)cc1Cl
COc1ccccc1CNc1ccc(-c2nc(C)no2)cc1[N+](=O)[O-]
O=C(c1ccc2c(c1)N(Cc1cccc(Cl)c1)C(=O)c1ccccc1S2(=O)=O)N1CCCCC1
Cc1ccc(C)c(NC(=O)Cn2cc(C(=O)C3CCCCC3)c3ccccc32)c1
CCOc1ccc(NC(=O)N2CC=C(c3c[nH]c4ccccc34)CC2)cc1
CCOC(=O)c1c(C)[nH]c(C)c1S(=O)(=O)N1CCC(C(=O)N2CCN(c3ccc(Cl)cc3)CC2)CC1
COc1cc(Cl)c(C)cc1NC(=O)c1cc2ccc3cccnc3c2[nH]1
Cc1cccc(C)c1NC(=O)c1csc2c1CCCC2
Cc1ccc(NC(=O)C2CCN(S(=O)(=O)c3c(C)noc3C)CC2)cc1
COC(=O)c1cc2oc3ccccc3c2n1Cc1nc(-c2ccccc2Cl)oc1C
CCOc1ccc(NC(=O)CSc2nc3ccsc3c(=O)n2C(C)CC)cc1 (stereo not given)
CCOc1cccc(Nc2nn(-c3ccc(OC(F)(F)F)cc3)nc2C(C)=O)c1
Cc1ccc2nc(NCc3ccccc3)c3nnnn3c2c1
COc1ccc(-c2noc(N3CCC(C(=O)N4CCN(c5ccccc5OC)CC4)CC3)n2)cc1
CCCCN(C)CCNC(=O)c1ccc(Cn2c(=O)[nH]c3cc(OC)c(OC)cc3c2=O)cc1
CCc1ccc(CNC(=O)c2ccc3c(Cl)c4c(nc3c2)CCCC4)cc1
Cc1cc(N2CCN(c3cccc(C)c3C)CC2)n2cnnc2n1
CCOC(=O)c1ccc2nc(C)cc(Nc3cccc(C(=O)O)c3)c2c1
Cc1ccc(C)c(N2CCN(C(=O)CCC(=O)Nc3ccc4nc(N5CCCCC5)cc(C)c4c3)CC2)c1
Cc1ccc(CNc2nc(-c3ccco3)nn2S(C)(=O)=O)cc1
COc1ccc(Cl)cc1-n1nnc(-c2nc(-c3ccccc3)no2)c1C
CCc1ccc(NC(=O)CSc2nc3ccccc3nc2Cc2ccc(C)cc2)cc1
